# In publication PMC7588591:
# Amino acid sequences for entries named in this document (tags omitted). Residues count along the entry.
# UniProt Q7Z434, residues 360-540: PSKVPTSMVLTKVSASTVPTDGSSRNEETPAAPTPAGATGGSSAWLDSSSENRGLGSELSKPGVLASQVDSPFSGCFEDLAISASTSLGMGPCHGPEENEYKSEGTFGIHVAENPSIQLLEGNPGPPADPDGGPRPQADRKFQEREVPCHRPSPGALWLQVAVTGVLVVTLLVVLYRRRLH
# These are yes or no findings as the source states them, for the method shown. Binding seen in cells or lysates may run through a third protein. Some entries that bind do so weakly or less than the wild type.
# Biological target: MAVS (360–540) (UniProt Q7Z434)
# Test: co-IP
substance,measurement,value
"SARS-CoV-2 membrane glycoprotein M (tagged, transfected) (from UniProt P0DTC5 1-222)",binding,binds
